# In all, about 310,000 compounds went through this assay and about 14,000 (4.5%) showed an effect of 50% or more. Effects have a minus sign here. Some of the results follow.
# Molecular target: human ether-à-go-go-related gene (hERG) potassium channel (human, UniProt Q12809)
# Test: primary screen, population patch clamp on CHO cells stably expressing hERG
# 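Further: peak tail current of the secondary pulse compared with the same well before compound.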
# Sequence of human ether-à-go-go-related gene (hERG) potassium channel (Q12809 whole entry, looked up): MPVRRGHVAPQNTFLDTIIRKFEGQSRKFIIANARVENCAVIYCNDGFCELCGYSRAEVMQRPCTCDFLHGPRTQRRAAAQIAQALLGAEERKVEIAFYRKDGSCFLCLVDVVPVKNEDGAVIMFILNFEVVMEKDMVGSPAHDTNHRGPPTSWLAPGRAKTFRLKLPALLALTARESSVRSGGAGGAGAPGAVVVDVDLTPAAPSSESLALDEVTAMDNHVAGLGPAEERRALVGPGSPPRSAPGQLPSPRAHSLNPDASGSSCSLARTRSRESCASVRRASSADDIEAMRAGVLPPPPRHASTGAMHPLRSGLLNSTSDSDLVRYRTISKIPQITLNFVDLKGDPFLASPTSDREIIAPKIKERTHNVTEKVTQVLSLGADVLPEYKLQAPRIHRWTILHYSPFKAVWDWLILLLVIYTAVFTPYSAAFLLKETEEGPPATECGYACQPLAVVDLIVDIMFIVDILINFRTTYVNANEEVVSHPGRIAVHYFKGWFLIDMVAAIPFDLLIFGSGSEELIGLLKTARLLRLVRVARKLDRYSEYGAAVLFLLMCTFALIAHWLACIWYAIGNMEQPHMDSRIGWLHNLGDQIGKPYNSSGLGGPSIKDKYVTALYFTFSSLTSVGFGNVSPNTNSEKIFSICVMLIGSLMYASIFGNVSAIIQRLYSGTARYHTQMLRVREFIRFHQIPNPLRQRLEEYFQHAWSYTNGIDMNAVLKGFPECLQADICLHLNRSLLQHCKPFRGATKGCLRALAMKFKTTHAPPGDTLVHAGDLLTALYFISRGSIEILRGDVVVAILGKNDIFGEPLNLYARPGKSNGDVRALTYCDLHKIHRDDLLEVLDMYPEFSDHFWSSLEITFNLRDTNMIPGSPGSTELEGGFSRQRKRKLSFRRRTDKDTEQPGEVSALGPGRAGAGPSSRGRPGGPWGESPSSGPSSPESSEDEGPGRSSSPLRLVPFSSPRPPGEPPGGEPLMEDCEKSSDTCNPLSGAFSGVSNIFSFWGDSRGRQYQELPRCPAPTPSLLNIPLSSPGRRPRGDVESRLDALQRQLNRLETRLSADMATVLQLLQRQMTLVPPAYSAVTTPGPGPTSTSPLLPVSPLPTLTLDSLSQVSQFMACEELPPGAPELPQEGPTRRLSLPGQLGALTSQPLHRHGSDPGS
row,Structure (SMILES),"hERG current change (%, negative = inhibition) at 10uM"
1,CC(C)CNC(=O)/C(C#N)=C1\N=C(NC(=O)c2ccco2)c2ccccc21,-60.4%
2,Cc1cc(C)nc(NS(=O)(=O)c2ccc(NC(=O)c3ccc4c(c3)OCCO4)cc2)n1,40.7%
3,CCc1cccc(C)c1NC(=O)CC(C)(C)CC(=O)O,10.5%
4,O=C(O)Cn1c(Cc2ccccc2)nc2ccccc21,-3.32%
5,CC1CN(C(=O)c2cc(S(=O)(=O)N3CCCC3)c(Cl)cc2Cl)CC(C)O1 (stereo not shown),3.85%
6,O=C(c1ccc2ncsc2c1)N1CCN(c2ccc(O)cc2)CC1,-16.9%
7,O=C(CCCC(=O)N(c1ccc2c(c1)OCCO2)C(C(=O)NC1CCCCC1)c1ccc(Cl)cc1)Nc1ccccn1 (stereo not shown),5.1%
8,Cn1nc(OCC(=O)O)cc1C(F)(F)F,11.6%
9,CCC1CO/C(=C(\C(Cl)=C(Cl)Cl)[N+](=O)[O-])N1 (stereo not shown),24.3%
10,CC(=O)c1ccc(OCC(=O)NCC2(N3CCCCC3)CCCCC2)cc1,4.71%
11,Cc1ccccc1C(=O)N1CCC(C(=O)Nc2ccc(C(C)C)cc2)CC1,-29.3%
12,COc1cccc(Nc2cc(N3CCOCC3)c3nonc3c2[N+](=O)[O-])c1,-8.87%
13,COc1ccc(P2(=O)Nc3ccccc3N2)cc1,-1.63%
14,CO/C([O-])=N/c1c[n+](-c2ccc(C)cc2)no1,-1.06%
15,CCC(=O)c1ccc(OCCN2CCOCC2)cc1,-6.65%
16,CC1CCCC(NC(=O)Nc2cccs2)C1C (stereo not shown),-20.3%
17,COc1cc(Cl)c(CN2CCCC(CO)(Cc3ccccc3)C2)cc1OC (stereo not shown),-55.2%
18,COc1ccc(CCNC(=O)c2nnn(CC(=O)Nc3ccccc3)c2N)cc1OC,4.48%
19,Cc1ccc(CN(C(=O)C(F)(F)F)C(C(=O)NC2CCCCC2)c2ccco2)cc1 (stereo not shown),-7.52%
20,CCCNC(=O)c1ccccc1NC(=O)c1ccc(CSc2ccccc2)cc1,0.292%
21,CCOC(=O)c1c(O)c2ccccc2oc1=O,-18.7%
22,COc1ccc(CCC(=O)NC2=NCCS2)cc1OC,12.6%
23,CC(CCCCCCCCC(=O)O)N(CCO)C(=O)OC(C)(C)C (stereo not shown),9.6%
24,CCOC(=O)C1=C(N)OC2=C(C(=O)CC(C)(C)C2)C1c1ccoc1 (stereo not shown),-16.1%
25,CN(C)c1ccc(CNC(=O)c2ccc(CNc3c(N4CCCCC4)c(=O)c3=O)cc2)cc1,8.31%

# From paper PMC4336329 (PLoS ONE, 2015)
